# In the supplement of paper PMC8728848:
# Some of the results follow.
# B1: AAL (Aleuria aurantia) (protein)
# chain: MPTEFLYTSKIAAISWAATGGRQQRVYFQDLNGKIREAQRGGDNPWTGGSSQNVIGEAKLFSPLAAVTWKSAQGIQIRVYCVNKDNILSEFVYDGSKWITGQLGSVGVKVGSNSKLAALQWGGSESAPPNIRVYYQKSNGSGSSIHEYVWSGKWTAGASFGSTVPGTGIGATAIGPGRLRIYYQATDNKIREHCWDSNSWYVGGFSASASAGVSIAAISWGSTPQIRVYWQKGREELYEAAYGGSWNTPGQIKDASRPTPSLPDTFIAANSSGNIDISVFFQASGVSLQQWQWISGKGWSIGAVVPTGTPAGW
# Assays:
# Assay in all cases: glycan array binding signal (z-score within array); higher = stronger binding
# Settings in all cases: glycan notation: IUPAC condensed, linker removed; mutation: N224Q
# [1] = molecular target: Neu5Ac(a2-6)Gal(b1-4)GlcNAc(b1-3)Gal(b1-4)GlcNAc(b1-3)GalNAc
# Method in brief: (§1)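 Arrays were curated from the Consortium for Functional Glycomics database, 3228 in total, and kept only where the protein sequence was available. Binding is expressed as a within-array Z-score. This score was averaged across arrays of the same protein sequence at different concentrations or buffers and across linkers, and negative values can be read as non-binding.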
# [2] = molecular target: Neu5Ac(a2-6)Gal(b1-4)GlcNAc(b1-3)Gal(b1-4)GlcNAc(b1-3)[Neu5Ac(a2-6)Gal(b1-4)GlcNAc(b1-3)Gal(b1-4)GlcNAc(b1-6)]GalNAc
# Method in brief: as §1
# [3] = molecular target: Neu5Ac(a2-6)Gal(b1-4)GlcNAc(b1-3)Gal(b1-4)GlcNAc(b1-6)[Gal(b1-3)]GalNAc
# Method in brief: as §1
# [4] = molecular target: Neu5Ac(a2-6)Gal(b1-4)GlcNAc(b1-3)Gal(b1-4)[Fuc(a1-3)]GlcNAc(b1-3)Gal(b1-4)[Fuc(a1-3)]GlcNAc
# Method in brief: as §1
# [5] = molecular target: Neu5Ac(a2-6)Gal(b1-4)GlcNAc(b1-3)GalNAc
# Method in brief: as §1
# [6] = molecular target: Neu5Ac(a2-6)Gal(b1-4)GlcNAc(b1-3)[Neu5Ac(a2-6)Gal(b1-4)GlcNAc(b1-6)]GalNAc
# Method in brief: as §1
# [7] = molecular target: Neu5Ac(a2-6)Gal(b1-4)GlcNAc(b1-6)GalNAc
# Method in brief: as §1
# [8] = molecular target: Neu5Ac(a2-6)Gal(b1-4)GlcNAc(b1-6)[Gal(b1-3)GlcNAc(b1-3)]Gal(b1-4)Glc
# Method in brief: as §1
# [9] = molecular target: Neu5Ac(a2-6)Gal(b1-4)GlcNAc(b1-6)[Gal(b1-3)]GalNAc
# Method in brief: as §1
# [10] = molecular target: Neu5Ac(a2-6)Gal(b1-4)GlcNAc6S
# Method in brief: as §1
# [11] = molecular target: Neu5Ac(a2-6)GalNAc
# Method in brief: as §1
# [12] = molecular target: Neu5Ac(a2-6)GalNAc(b1-4)GlcNAc
# Method in brief: as §1
# [13] = molecular target: Neu5Ac(a2-6)GalNAc(b1-4)GlcNAc6S
# Method in brief: as §1
# [14] = molecular target: Neu5Ac(a2-6)GlcNAc(b1-4)GlcNAc
# Method in brief: as §1
# [15] = molecular target: Neu5Ac(a2-6)GlcNAc(b1-4)GlcNAc(b1-4)GlcNAc
# Method in brief: as §1
# [16] = molecular target: Neu5Ac(a2-8)Neu5Ac
# Method in brief: as §1
# [17] = molecular target: Neu5Ac(a2-8)Neu5Ac(a2-3)Gal(b1-3)GalNAc(b1-4)[Neu5Ac(a2-3)]Gal(b1-4)Glc
# Method in brief: as §1
# [18] = molecular target: Neu5Ac(a2-8)Neu5Ac(a2-3)Gal(b1-3)GalNAc(b1-4)[Neu5Ac(a2-8)Neu5Ac(a2-3)]Gal(b1-4)Glc
# Method in brief: as §1
# [19] = molecular target: Neu5Ac(a2-8)Neu5Ac(a2-3)Gal(b1-4)Glc
# Method in brief: as §1
# [20] = molecular target: Neu5Ac(a2-8)Neu5Ac(a2-3)Gal(b1-4)GlcNAc
# Method in brief: as §1
# [21] = molecular target: Neu5Ac(a2-8)Neu5Ac(a2-3)[Gal(b1-3)GalNAc(b1-4)]Gal(b1-4)Glc
# Method in brief: as §1
# [22] = molecular target: Neu5Ac(a2-8)Neu5Ac(a2-3)[GalNAc(b1-4)]Gal(b1-4)Glc
# Method in brief: as §1
# [23] = molecular target: Neu5Ac(a2-8)Neu5Ac(a2-8)Neu5Ac
# Method in brief: as §1
# [24] = molecular target: Neu5Ac(a2-8)Neu5Ac(a2-8)Neu5Ac(a2-3)Gal(b1-4)Glc
# Method in brief: as §1
# [25] = molecular target: Neu5Ac(a2-8)Neu5Ac(a2-8)Neu5Ac(a2-3)[Gal(b1-3)GalNAc(b1-4)]Gal(b1-4)Glc
# Method in brief: as §1
# [26] = molecular target: Neu5Ac(a2-8)Neu5Ac(a2-8)Neu5Ac(a2-3)[GalNAc(b1-4)]Gal(b1-4)Glc
# Method in brief: as §1
# [27] = molecular target: Neu5Ac(a2-8)Neu5Ac(a2-8)Neu5Ac(a2-8)Neu5Ac(a2-3)[GalNAc(b1-4)]Gal(b1-4)Glc
# Method in brief: as §1
# [28] = molecular target: Neu5Ac(a2-8)Neu5Gc(a2-3)Gal(b1-4)GlcNAc
# Method in brief: as §1
# [29] = molecular target: Neu5Ac(b2-6)Gal(b1-4)GlcNAc
# Method in brief: as §1
# [30] = molecular target: Neu5Ac(b2-6)GalNAc
# Method in brief: as §1
# [31] = molecular target: Neu5Ac9Ac(a2-3)Gal(b1-3)GlcNAc
# Method in brief: as §1
# [32] = molecular target: Neu5Ac9Ac(a2-3)Gal(b1-4)GlcNAc
# Method in brief: as §1
# [33] = molecular target: Neu5Ac9Ac(a2-6)Gal(b1-4)GlcNAc
# Method in brief: as §1
# [34] = molecular target: Neu5Gc(a2-3)Gal(b1-3)GlcNAc
# Method in brief: as §1
# [35] = molecular target: Neu5Gc(a2-3)Gal(b1-3)[Fuc(a1-4)]GlcNAc
# Method in brief: as §1
# [36] = molecular target: Neu5Gc(a2-3)Gal(b1-4)Glc
# Method in brief: as §1
# [37] = molecular target: Neu5Gc(a2-3)Gal(b1-4)GlcNAc
# Method in brief: as §1
# [38] = molecular target: Neu5Gc(a2-3)Gal(b1-4)GlcNAc(b1-3)Gal(b1-4)GlcNAc(b1-2)Man(a1-3)[Neu5Gc(a2-3)Gal(b1-4)GlcNAc(b1-3)Gal(b1-4)GlcNAc(b1-2)Man(a1-6)]Man(b1-4)GlcNAc(b1-4)GlcNAc
# Method in brief: as §1
# [39] = molecular target: Neu5Gc(a2-3)Gal(b1-4)[Fuc(a1-3)]GlcNAc
# Method in brief: as §1
# [40] = molecular target: Neu5Gc(a2-6)Gal(b1-4)GlcNAc
# Method in brief: as §1
# [41] = molecular target: Neu5Gc(a2-6)GalNAc
# Method in brief: as §1
# [42] = molecular target: Neu5Gc(a2-8)Neu5Ac(a2-3)Gal(b1-4)GlcNAc
# Method in brief: as §1
# [43] = molecular target: Neu5Gc(a2-8)Neu5Gc(a2-3)Gal(b1-4)GlcNAc
# Method in brief: as §1
# [44] = molecular target: Neu5Gc(a2-8)Neu5Gc(a2-3)Gal(b1-4)GlcNAc(b1-3)Gal(b1-4)GlcNAc
# Method in brief: as §1
# [45] = molecular target: Neu5Gc(a2-8)Neu5Gc(a2-6)Gal(b1-4)GlcNAc
# Method in brief: as §1
# [46] = molecular target: Neu5Gc(b2-6)Gal(b1-4)GlcNAc
# Method in brief: as §1
binder,measurement,setting,value
B1,glycan array binding signal (z-score),[1],-0.309
same,glycan array binding signal (z-score),[2],-0.209
same,glycan array binding signal (z-score),[3],-0.302
same,glycan array binding signal (z-score),[4],-0.195
same,glycan array binding signal (z-score),[5],-0.305
same,glycan array binding signal (z-score),[6],-0.313
same,glycan array binding signal (z-score),[7],-0.305
same,glycan array binding signal (z-score),[8],-0.308
same,glycan array binding signal (z-score),[9],-0.307
same,glycan array binding signal (z-score),[10],-0.32
same,glycan array binding signal (z-score),[11],-0.334
same,glycan array binding signal (z-score),[12],-0.323
same,glycan array binding signal (z-score),[13],-0.308
same,glycan array binding signal (z-score),[14],-0.327
same,glycan array binding signal (z-score),[15],-0.283
same,glycan array binding signal (z-score),[16],-0.323
same,glycan array binding signal (z-score),[17],-0.313
same,glycan array binding signal (z-score),[18],-0.306
same,glycan array binding signal (z-score),[19],-0.322
same,glycan array binding signal (z-score),[20],-0.337
same,glycan array binding signal (z-score),[21],-0.313
same,glycan array binding signal (z-score),[22],-0.318
same,glycan array binding signal (z-score),[23],-0.324
same,glycan array binding signal (z-score),[24],-0.325
same,glycan array binding signal (z-score),[25],-0.316
same,glycan array binding signal (z-score),[26],-0.313
same,glycan array binding signal (z-score),[27],-0.317
same,glycan array binding signal (z-score),[28],-0.317
same,glycan array binding signal (z-score),[29],-0.314
same,glycan array binding signal (z-score),[30],-0.326
same,glycan array binding signal (z-score),[31],-0.335
same,glycan array binding signal (z-score),[32],-0.306
same,glycan array binding signal (z-score),[33],-0.331
same,glycan array binding signal (z-score),[34],-0.325
same,glycan array binding signal (z-score),[35],-0.216
same,glycan array binding signal (z-score),[36],-0.313
same,glycan array binding signal (z-score),[37],-0.328
same,glycan array binding signal (z-score),[38],-0.29
same,glycan array binding signal (z-score),[39],0.052
same,glycan array binding signal (z-score),[40],-0.32
same,glycan array binding signal (z-score),[41],-0.327
same,glycan array binding signal (z-score),[42],-0.317
same,glycan array binding signal (z-score),[43],-0.317
same,glycan array binding signal (z-score),[44],-0.319
same,glycan array binding signal (z-score),[45],-0.31
same,glycan array binding signal (z-score),[46],-0.313
